± gives the standard deviation of the averaged measurements. The list shows a part of the results.
system: PfAP2-EXP AP2 domain (GST-tagged); test: gcPBM binding intensity (ln(normalized median fluorescence intensity)); higher = stronger DNA binding
In short: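 Using an Agilent 4 × 180k array, primer-extended double-stranded 36-bp intergenic genomic probes and negative controls were exposed for 1 h to GST-fused P. falciparum DNA-binding domains expressed in E. coli. Binding was carried out in 1× PBS with 1% milk, 0.2 mg/ml BSA, 0.5% salmon testes DNA and 0.03% Triton X-100, and protein was detected with Alexa488 anti-GST antibody and a 488 nm scan. Binding intensity is the highest Masliner-normalised natural-log median intensity across replicate spots of either probe orientation.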

Row | Sequence | gcPBM binding intensity (ln)
1 | TACTTATTGTGATACTTATATTATTTTATGATTAAA [XGTACX_negctrl_site353] | 8.36 ± 0.39
2 | TATTAATGATAAAAAAGTACATTATTATATGATATT [XGTACX_site4235] | 8.36 ± 0.34
3 | TAAGTCATATAAATGTGTACATAAAAAAAAAAAATG [XGTACX_site1645] | 8.67 ± 0.4
4 | TTTTTTTTTTTTTTTTCACACATTGTACTTTTTTAT [CACACA_site5193] | 8.48 ± 0.45
5 | TCTATCAAATTTGAAGGTACACATTTGAGATAATTA [XGTACX_site3797] | 8.46 ± 0.35
6 | ATCATTTGCATACGCACACACACATAAAAAGAAAAA [CACACA_site355] | 8.63 ± 0.42
7 | AATAATAAATAAATGTGTACTTAAAAATATTATATT [XGTACX_site3005] | 8.44 ± 0.33
8 | CAAAGTATTATGATTACACACATGTGCTTTTTTCTT [CACACA_site163] | 8.57 ± 0.42
9 | TTGTATCATATATTATGTACATATTGATTTATTACC [XGTACX_site12] | 8.42 ± 0.33
10 | ATGTCCTATATTAGTACACACATGAAAATATAAATA [CACACA_site7497] | 8.46 ± 0.32
11 | AATATAAAAAAAAACAAAAAAAAAATTTTGGTTCAC [CACACA_negctrl_site1290] | 8.21 ± 0.53
12 | AACCATACACAAATAAACATAGACACAGATACCTCC [CACACA_negctrl_site598] | 8.63 ± 0.53
13 | TCCTATGATGATGATAGTACATATGAGTTCAAAAAA [XGTACX_site273] | 8.4 ± 0.33
14 | ACAATTAATCAAACAAGTACAAAATATATCCCTATT [XGTACX_site6223] | 8.49 ± 0.32
15 | TTATTGTTATTTGTTTGTACATAATATAATATATTA [XGTACX_site6477] | 8.61 ± 0.33
16 | AATATGTGTATAGATAGTACACATGCTGATAATATA [XGTACX_site5941] | 8.59 ± 0.33
17 | AAAATTTTGGAACGTGCACACATATGTAATATATAT [CACACA_site9004] | 9.41 ± 0.43
18 | TTTTTAAAATATTTAACACACAATTATAATGCATAA [CACACA_site3932] | 8.63 ± 0.45
19 | AGTAGTCTGGAGAAATGTACACAGTATCTGGTAGCT [XGTACX_site4871] | 8.45 ± 0.34
20 | ATATTACTTCCTAAGTGTACAAGTAAGGAGAAAAAA [XGTACX_site3921] | 8.74 ± 0.35
21 | GATAAAATGGATGGATGTACATTATTTCCATATAAT [XGTACX_site7781] | 8.55 ± 0.5
22 | AAAAAAAAAAAAAACACACACACAAAATAAACAAAC [CACACA_site2720] | 8.72 ± 0.63
23 | AGATGTTTTTATATATGTACTTAAATACACAAATAT [XGTACX_site8250] | 8.46 ± 0.2

Row | Sequence | gcPBM binding intensity (ln)
24 | TTATCGGTATAATATAGTACATATAGATATATAATA [XGTACX_site1440] | 8.41 ± 0.34
25 | TGATAATTTTTTACATGTACAAGTTTGTTTTTGCAT [XGTACX_site125] | 8.89 ± 0.35
26 | AATTTCTATTTTGTGAGTACATACTCCTATTATATA [XGTACX_site3210] | 8.78 ± 0.26
27 | TAAAAGTTAATATAAACACACAAAAATTAATAAATA [CACACA_site6316] | 8.62 ± 0.27
28 | ATAATGGAGAAATAAGCATGCATTATATTATAAAAA [TGCATGCA_site325] | 9.31 ± 0.56
29 | TGAATATTTCTATATACACACATATAAATATAAATA [CACACA_site7593] | 8.26 ± 0.36
30 | AAAAAAAAAAAAATGTAATTTTTTAATTATTTATAT [GTGCAC_negctrl_site436] | 7.96 ± 0.43
31 | CATATATTTTTGTATAGTACTTTTTTTATTCGTTTT [XGTACX_site1860] | 8.71 ± 0.45
32 | TATTTTATCATTTGCACACGCACACCGACATAAAAA [CACACA_site4348] | 8.87 ± 0.25
33 | CATCTAAATTGTAGTTGTACACCTTAATCTTATTAC [XGTACX_site7547] | 8.8 ± 0.3
34 | GTATCAAAAGAATACACACACACATACATATATATA [CACACA_site3796] | 8.68 ± 0.38
35 | ACTCTCTTATATTAAACACACATATTTATAGGTATA [CACACA_site7302] | 8.64 ± 0.22
36 | ATTTTAGAATAAATTTTTTACATTAAAAAACTATTT [CACACA_negctrl_site1414] | 7.92 ± 0.33
37 | AAGGATATAACATACACACACACACGGATATAAATA [CACACA_site7867] | 8.93 ± 0.46
38 | TGAACATATTAAAATTGTACATATGCACAATATGTA [XGTACX_site6801] | 8.53 ± 0.39
39 | CATACAATAAATATGGTGCATTTTATGTAACCGTTT [GTGCAC_site9420] | 8.52 ± 0.099
40 | AAAAGGTTATCAATATGTACATATTTTTTTATTTTT [XGTACX_site3277] | 8.59 ± 0.4
41 | AGAAATACAAAATAAATATAAGAAACAAAATATTTA [CACACA_negctrl_site780] | 8.79 ± 0.38
42 | TGAAAAATAAATAAATGTACATATATATATATATAC [XGTACX_site7310] | 8.41 ± 0.12
43 | TATTTCATCATATTGTGTACTTAATTTATATAATTA [XGTACX_site5753] | 8.65 ± 0.32
44 | TTTTAATTAAAACACACACACACATATATATATATA [CACACA_site2291] | 10.2 ± 0.23
45 | ATAAAAATATGATCAACACACGATTAAATATTCATA [CACACA_site1495] | 8.4 ± 0.45

Source: the supplement of paper PMC11417369
